Experimental data taken from ChEMBL document CHEMBL4888484, “Replenishing the malaria drug discovery pipeline: Screening and hit evaluation of the MMV Hit Generation Library 1 (HGL1) against asexual blood stage Plasmodium falciparum ,using a nano luciferase reporter read-out” (2022).
In all, about 150,000 compounds went through this assay and about 540 (0.36%) showed an effect of 50% or more. Some of the results follow.

Each molecule was assayed on Plasmodium falciparum (assay: Primary screen in NF54 nanoGlo assay, in single point, at 2uM, 72h; a lower Z score goes with more inhibition). Conditions: timepoint 72 hour.
Format: functional, Erythrocyte

SMILES	% Inhibition [%]	Z score
O=C(NCc1ccc(F)cc1)c1n[nH]c2c1CCCC2	32	-3.62
CC(=O)OCC(=O)N1CCC(CCc2ccc3c(c2)OCO3)CC1	18	-2.75
Cc1onc(-c2ccccc2)c1C(=O)c1c[nH]c(C(=O)NCc2ccncc2)c1	38	-4.95
COc1ccc(-c2nccn2C[C@H]2CCCCO2)cc1OC	-10	1.36
CCCNC(=O)c1cc(OC)c(OC)c(OC)c1	-5	0.58
OCC1CCN([C@H]2CN(Cc3ccc(-c4cc[nH]n4)s3)C[C@@H]2O)CC1	-1	0.12
CC1CC(C)CN(S(=O)(=O)c2ccc(F)c(C(=O)NC3CCCCC3C)c2)C1 (stereo not given)	-4	0.75
Cc1nsc(N[C@H]2CC(=O)N(c3ccccc3)C2)n1	0	-0.02
CCN(CC(C)(C)O)C(=O)Nc1cc(C)on1	-3	0.3
Cc1cc(CC(=O)N2CCCCCC2CC(O)c2ccccc2)no1 (stereo not given)	-15	1.28
Cc1c(Cl)ccc2c(N(C)Cc3ccccc3)c(C(=O)O)cnc12	-2	0.23
COc1ccc([C@H](CNC(=O)C2(O)CCC2)N2CCCCC2)cc1	4	-0.72
Fc1ccc(C2(c3nc([C@H]4CCOC4)no3)CC2)cc1	-2	0.33
COc1c[nH]c(C(=O)NC2CCN(Cc3ccccc3)CC2)cc1=O	60	-7.68
O=C(NCc1ccc(N2CCOCC2)cc1)C1CCN(Cc2c(F)cccc2Cl)CC1	-13	2.3
Nc1nc2c(c(NC[C@H]3CCN(c4ccccc4)C3)n1)CCNCC2	-13	2.02
COc1ccc(CCNC(=O)CN2CCCO[C@@H](CN3CCCCC3)C2)cc1	-5	0.43
O=C(Oc1ccc(N2CCCC2=O)cc1)c1ccc[nH]1	1	-0.07
CCOCCCn1c(NC(=O)c2cc3ccccc3n2CC)nc2ccccc21	-3	0.37
C[C@@H](CNC(=O)C1=Cc2ccccc2OC1)c1ccccc1	-9	0.84
Cc1cc(C(=O)Nc2ccc3c(c2)C(=O)NC3)on1	4	-0.66
c1ccc(-c2nc[nH]c2-c2cccn2-c2nccs2)cc1	7	-1.31
Cc1ccccc1OC1CN(C(=O)[C@@H]2CCCN2C2CCN(C)CC2)C1	-5	0.74
Cc1cc(C)cc(NC(=O)[C@H]2CC23CCN(Cc2ccc4c(c2)OCO4)CC3)c1	-4	0.48
C[C@@H](Cc1ccccn1)n1cnc2ccccc2c1=O	-7	1
Cc1cccc(OCCNCCO)c1C	-10	1.31
CCN(C[C@H]1CCCO1)C(=O)c1c[nH]c2ncccc12	-3	0.28
CCOc1ccc(Cl)cc1CN(C)C(=O)[C@@H]1CCCCN1C	-12	1.18

SMILES	% Inhibition [%]	Z score
CN1C(=O)[C@H](CC(=O)N(Cc2ccsc2)C2CCCC2)N(C)C1=O	-5	0.83
O=C(NC[C@H]1CCCN(c2ccncc2)C1)c1ccon1	6	-0.86
COCCCNC(=O)CN(C)C(=O)[C@H](C)Oc1ccc(F)cc1	-2	0.44
CC(=O)c1cccc(OS(=O)(=O)c2ccc3c(c2)CCN3C(C)=O)c1	-10	0.93
Cc1nnsc1C(=O)N1CC[C@H](O)[C@@H]1C	-9	1.01
Cc1nccc(OC2CCN(C(=O)c3ccoc3)CC2)n1	-7	1.36
NC(=O)NCC1CCCC(C(F)(F)F)C1 (stereo not given)	-4	0.54
CCn1nc(-c2ccc(OC)c(S(=O)(=O)N(C)c3ccccc3)c2)c2c(c1=O)CCCC2	-5	0.76
N#Cc1nc(C2CC2c2ccccc2)oc1N1CCN(C(c2ccccc2)c2ccccc2)CC1 (stereo not given)	-18	2.44
Cc1csc(N(C)C(=O)c2cccc(=O)n2CCOc2ccccc2Cl)n1	1	-0.15
Cc1cccc2nc(C(=O)N3CCOC[C@@H]3CC(=O)N3CCCC3)c(F)n12	3	-0.54
CC1(C)[C@@H](O)CCN1C(=O)c1cscc1Cl	-5	0.96
CC(C)CNc1nc(C(=O)Nc2cccnc2)cs1	-17	1.47
Cc1c(NC(=O)c2cnn(-c3cccc(Cl)c3)c2C)cccc1C(=O)N1CCCC1	-1	0.18
CN(C)c1cncc(NCC[C@H]2CCCOC2)n1	-9	1.65
O=C(CCC(=O)c1ccccc1)NC1CCC(O)CC1 (stereo not given)	35	-0.88
Brc1cc2c(cc1CN1CCC[C@H](Cn3cncn3)C1)OCCCO2	-4	0.38
O=C(Nc1nnc(CCS(=O)(=O)c2ccccc2)o1)c1ccco1	-8	1.57
CCN1C(=O)c2c(C(=O)NCc3ccc(OC(C)C)cc3)ncn2C[C@@]1(C)C(=O)NC1CCCC1	-10	1.94
CNS(=O)(=O)CC(=O)Nc1ccc2[nH]c(OC)nc2c1	-4	0.86
CCN1CC[C@@]2(CCC1=O)CN(C(=O)c1ccc(COC)s1)CCN2C	-2	0.35
CCC(=O)Oc1ccc(CNC(C)(C)C)cc1	-8	1.3
Nn1c(CCOC(=O)c2ccccc2)nnc1CCOC(=O)c1ccccc1	3	-0.49
c1ccc(Cn2c(-c3ccccc3)cc3c2[C@@H](c2ccccc2)Oc2ccccc2-3)cc1	-3	0.46
CC(C)(C)OC(=O)N1CCC[C@H]1C(=O)N1CCCCCC1	-15	1.75
Cc1ncc(C(=O)NCC(C)(C)N2CCOCC2)c(O)c1Cl	-8	0.83
CCn1cc(CNC(=O)c2cc(C3CC3)nc3onc(-c4ccc(OC)cc4)c23)cn1	31	-3.5
